Data: the supplement of paper PMC8728848
This is one part of the list.

Legend:
Assay in all cases: glycan array binding signal (z-score within array); higher = stronger binding
Conditions in all cases: glycan notation: IUPAC condensed, linker removed
[1] = target: GlcNAc(b1-3)Gal(b1-4)GlcNAc
Procedure, shortened: (§1)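 From the Consortium for Functional Glycomics database, 3228 arrays were curated, keeping only those whose protein sequence was available. Binding is given as a within-array Z-score averaged across arrays sharing a protein sequence and across linkers. Negative Z-scores can be read as non-binding.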

[2] = target: GlcNAc(b1-3)Gal(b1-4)GlcNAc(b1-3)Gal(b1-4)GlcNAc
Procedure, shortened: as §1

GlcNAc(b1-3)GalNAc = target: GlcNAc(b1-3)GalNAc
Procedure, shortened: as §1

[3] = target: GlcNAc(b1-3)[GlcNAc(b1-6)]Gal(b1-4)GlcNAc
Procedure, shortened: as §1

[4] = target: GlcNAc(b1-3)[GlcNAc(b1-6)]GalNAc
Procedure, shortened: as §1

[5] = target: GlcNAc(b1-3)[GlcNAc(b1-6)]GlcNAc(b1-4)GlcNAc
Procedure, shortened: as §1

[6] = target: GlcNAc(b1-4)Gal(b1-4)GlcNAc
Procedure, shortened: as §1

[7] = target: GlcNAc(b1-4)GlcNAc(b1-4)GlcNAc
Procedure, shortened: as §1

[8] = target: GlcNAc(b1-4)GlcNAc(b1-4)GlcNAc(b1-4)GlcNAc(b1-4)GlcNAc
Procedure, shortened: as §1

[9] = target: GlcNAc(b1-4)GlcNAc(b1-4)GlcNAc(b1-4)GlcNAc(b1-4)GlcNAc(b1-4)GlcNAc
Procedure, shortened: as §1

[10] = target: GlcNAc(b1-4)[GlcNAc(b1-6)]GalNAc
Procedure, shortened: as §1

[11] = target: GlcNAc(b1-6)Gal(b1-4)GlcNAc
Procedure, shortened: as §1

GlcNAc(b1-6)GalNAc = target: GlcNAc(b1-6)GalNAc
Procedure, shortened: as §1

Kdn(a2-3)Gal(b1-3)GlcNAc = target: Kdn(a2-3)Gal(b1-3)GlcNAc
Procedure, shortened: as §1

Kdn(a2-3)Gal(b1-4)GlcNAc = target: Kdn(a2-3)Gal(b1-4)GlcNAc
Procedure, shortened: as §1

[12] = target: Man(a1-2)Man(a1-2)Man(a1-3)Man
Procedure, shortened: as §1

[13] = target: Man(a1-2)Man(a1-2)Man(a1-6)[Man(a1-3)]Man
Procedure, shortened: as §1

Man(a1-2)Man(a1-3)Man = target: Man(a1-2)Man(a1-3)Man
Procedure, shortened: as §1

[14] = target: Man(a1-2)Man(a1-3)[Man(a1-2)Man(a1-6)]Man
Procedure, shortened: as §1

[15] = target: Man(a1-2)Man(a1-3)[Man(a1-2)Man(a1-6)]Man(a1-6)[Man(a1-2)Man(a1-2)Man(a1-3)]Man(b1-4)GlcNAc(b1-4)GlcNAc
Procedure, shortened: as §1

[16] = target: Man(a1-2)Man(a1-3)[Man(a1-6)]Man(a1-6)[Man(a1-2)Man(a1-3)]Man(b1-4)GlcNAc(b1-4)GlcNAc
Procedure, shortened: as §1

[17] = target: Man(a1-2)Man(a1-6)[Man(a1-3)]Man(a1-6)[Man(a1-2)Man(a1-2)Man(a1-3)]Man(b1-4)GlcNAc(b1-4)GlcNAc
Procedure, shortened: as §1

Man(a1-3)[Man(a1-6)]Man = target: Man(a1-3)[Man(a1-6)]Man
Procedure, shortened: as §1

[18] = target: Man(a1-3)[Man(a1-6)]Man(a1-6)[Man(a1-2)Man(a1-3)]Man(b1-4)GlcNAc(b1-4)GlcNAc
Procedure, shortened: as §1

[19] = target: Man(a1-3)[Man(a1-6)]Man(a1-6)[Man(a1-3)]Man(b1-4)GlcNAc(b1-4)GlcNAc
Procedure, shortened: as §1

[20] = target: Man(a1-3)[Man(a1-6)]Man(b1-4)GlcNAc(b1-4)GlcNAc
Procedure, shortened: as §1

Man(b1-4)GlcNAc = target: Man(b1-4)GlcNAc
Procedure, shortened: as §1

Neu5Ac(a2-3)Gal = target: Neu5Ac(a2-3)Gal
Procedure, shortened: as §1

[21] = target: Neu5Ac(a2-3)Gal(b1-3)GalNAc
Procedure, shortened: as §1

[22] = target: Neu5Ac(a2-3)Gal(b1-3)GalNAc(b1-3)Gal(a1-4)Gal(b1-4)Glc
Procedure, shortened: as §1

[23] = target: Neu5Ac(a2-3)Gal(b1-3)GalNAc(b1-3)Gal(b1-4)GlcNAc
Procedure, shortened: as §1

[24] = target: Neu5Ac(a2-3)Gal(b1-3)GalNAc(b1-4)[Neu5Ac(a2-3)]Gal(b1-4)Glc
Procedure, shortened: as §1

[25] = target: Neu5Ac(a2-3)Gal(b1-3)GalNAc6S
Procedure, shortened: as §1

[26] = target: Neu5Ac(a2-3)Gal(b1-3)GlcNAc
Procedure, shortened: as §1

[27] = target: Neu5Ac(a2-3)Gal(b1-3)GlcNAc6S
Procedure, shortened: as §1

[28] = target: Neu5Ac(a2-3)Gal(b1-3)[Fuc(a1-4)]GlcNAc
Procedure, shortened: as §1

[29] = target: Neu5Ac(a2-3)Gal(b1-3)[Fuc(a1-4)]GlcNAc(b1-3)Gal(b1-4)[Fuc(a1-3)]GlcNAc
Procedure, shortened: as §1

[30] = target: Neu5Ac(a2-3)Gal(b1-3)[Neu5Ac(a2-3)Gal(b1-4)]GlcNAc
Procedure, shortened: as §1

B1: FaeGac (Escherichia coli) (protein)
chain: WMTGDFNGSVDIGGSITADDYRQKWEWKVGTGLNGFGNVLNDLTNGGTKLTITVTGNKPILLGRTKEAFATPVTGGVDGIPHIAFTDYEGASVVLRNPDGETNKKGLAYFVLPMKNAEGTKVGSVKVNASYAGVLGRGGVTSADGELLSLFADGLSSIFYGGLPRGSELSAGSAAAERTKLFGSLSRNDILGQIQRVNANITSLVDVAGSYRENMEYTDGTVVSAAYALGIANGQTIEATFNQAVTTSTQWSAPLNVAITYY
glycan array binding signal (z-score) [1]: -0.283
glycan array binding signal (z-score) [2]: -0.178
glycan array binding signal (z-score) (GlcNAc(b1-3)GalNAc): 0.249
glycan array binding signal (z-score) [3]: 0.002
glycan array binding signal (z-score) [4]: 1.36
glycan array binding signal (z-score) [5]: 1.32
glycan array binding signal (z-score) [6]: 0.578
glycan array binding signal (z-score) [7]: 0.673
glycan array binding signal (z-score) [8]: 0.508
glycan array binding signal (z-score) [9]: -0.053
glycan array binding signal (z-score) [10]: 0.223
glycan array binding signal (z-score) [11]: 1.59
glycan array binding signal (z-score) (GlcNAc(b1-6)GalNAc): 0.309
glycan array binding signal (z-score) (Kdn(a2-3)Gal(b1-3)GlcNAc): -0.645
glycan array binding signal (z-score) (Kdn(a2-3)Gal(b1-4)GlcNAc): -0.627
glycan array binding signal (z-score) [12]: 0.631
glycan array binding signal (z-score) [13]: 2.13
glycan array binding signal (z-score) (Man(a1-2)Man(a1-3)Man): -0.043
glycan array binding signal (z-score) [14]: 0.546
glycan array binding signal (z-score) [15]: 0.169
glycan array binding signal (z-score) [16]: 0.325
glycan array binding signal (z-score) [17]: 1.36
glycan array binding signal (z-score) (Man(a1-3)[Man(a1-6)]Man): -0.13
glycan array binding signal (z-score) [18]: 0.428
glycan array binding signal (z-score) [19]: 0.445
glycan array binding signal (z-score) [20]: -0.194
glycan array binding signal (z-score) (Man(b1-4)GlcNAc): -0.582
glycan array binding signal (z-score) (Neu5Ac(a2-3)Gal): -0.596
glycan array binding signal (z-score) [21]: -0.369
glycan array binding signal (z-score) [22]: -0.732
glycan array binding signal (z-score) [23]: -0.517
glycan array binding signal (z-score) [24]: -0.733
glycan array binding signal (z-score) [25]: -0.671
glycan array binding signal (z-score) [26]: -0.422
glycan array binding signal (z-score) [27]: -0.071
glycan array binding signal (z-score) [28]: -0.643
glycan array binding signal (z-score) [29]: 0.648
glycan array binding signal (z-score) [30]: -0.71
